The whole screen tested about 310,000 compounds, of which about 2,200 (0.71%) showed an effect of 50% or more. Effects have a minus sign here. The list shows a part of the results.

This experiment deals with human ether-à-go-go-related gene (hERG) potassium channel (human, UniProt Q12809). Briefly: primary screen, population patch clamp on CHO cells stably expressing hERG.
Sequence of human ether-à-go-go-related gene (hERG) potassium channel (Q12809 whole entry, looked up): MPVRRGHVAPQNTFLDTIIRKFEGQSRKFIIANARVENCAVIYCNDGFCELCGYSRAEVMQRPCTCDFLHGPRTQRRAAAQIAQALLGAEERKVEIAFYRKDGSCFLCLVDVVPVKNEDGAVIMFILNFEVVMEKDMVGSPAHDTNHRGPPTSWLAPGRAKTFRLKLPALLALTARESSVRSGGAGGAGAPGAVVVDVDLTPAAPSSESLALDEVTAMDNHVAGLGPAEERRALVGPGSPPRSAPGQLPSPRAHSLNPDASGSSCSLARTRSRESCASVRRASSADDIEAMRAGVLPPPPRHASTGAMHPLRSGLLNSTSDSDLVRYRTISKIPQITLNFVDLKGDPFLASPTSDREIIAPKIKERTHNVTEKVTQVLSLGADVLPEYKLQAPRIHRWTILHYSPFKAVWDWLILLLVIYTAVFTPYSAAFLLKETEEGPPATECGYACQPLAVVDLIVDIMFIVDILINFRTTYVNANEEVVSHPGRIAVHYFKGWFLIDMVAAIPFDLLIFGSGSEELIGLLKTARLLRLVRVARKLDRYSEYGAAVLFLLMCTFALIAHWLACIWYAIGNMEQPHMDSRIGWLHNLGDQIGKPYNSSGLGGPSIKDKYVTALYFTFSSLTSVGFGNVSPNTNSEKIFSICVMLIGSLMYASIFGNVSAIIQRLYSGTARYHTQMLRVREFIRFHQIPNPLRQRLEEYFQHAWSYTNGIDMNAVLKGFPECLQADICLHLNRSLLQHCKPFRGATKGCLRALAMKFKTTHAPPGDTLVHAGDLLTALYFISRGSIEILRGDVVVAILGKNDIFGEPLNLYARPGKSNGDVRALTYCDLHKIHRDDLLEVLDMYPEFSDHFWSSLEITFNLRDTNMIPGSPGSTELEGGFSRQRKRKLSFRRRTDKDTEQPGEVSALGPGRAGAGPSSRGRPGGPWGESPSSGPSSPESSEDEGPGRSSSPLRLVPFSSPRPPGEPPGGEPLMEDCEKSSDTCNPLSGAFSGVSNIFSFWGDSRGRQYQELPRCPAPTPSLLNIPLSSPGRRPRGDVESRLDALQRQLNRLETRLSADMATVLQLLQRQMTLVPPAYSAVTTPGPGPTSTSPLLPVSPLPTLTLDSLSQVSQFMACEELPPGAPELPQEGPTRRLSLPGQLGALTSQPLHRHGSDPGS
For the compound `COC(=O)[C@H](CC(C)C)NC(=O)N1CCN(c2cccc(C(F)(F)F)c2)CC1`, the “hERG current change (%, negative = inhibition) at 1uM” value is 7.59%.
To `OC(CN1CCN(c2ccccn2)CC1)Cn1c2ccc(Cl)cc2c2cc(Cl)ccc21` (centres unmarked) belongs -0.825%; to `O=C(OC1CCN(c2ncc(C(F)(F)F)cc2Cl)CC1)c1ccc(Cl)cc1`, 9.85%.
To `COC(=O)c1cc(OC)c(OC)cc1NC(=O)CCc1ccc(C)o1` belongs 15.2%.
With `COC(=O)c1cc(S(=O)(=O)NCC2CCN(Cc3cc(C)ccc3C)CC2)cn1C` the figure was 1.06%; with `Br.N=C1c2ccccc2CN1NC(=O)COc1ccc(Cl)cc1`, -2.04%.
Regarding `O=C(Nc1ccc(Br)cn1)c1cccc2ccccc12`, the “hERG current change (%, negative = inhibition) at 1uM” value worked out at 14.1%.
With `COc1cc(C(=O)NC(CCSC)C(=O)OCC(=O)C(C)(C)C)cc(OC)c1OC` (centres unmarked), the “hERG current change (%, negative = inhibition) at 1uM” value turned out to be 16.7%.
As to `Cc1ccc(-n2[nH]c(C)c(C=NC34CN5CN(CN(C5)C3)C4)c2=O)cc1C`, the “hERG current change (%, negative = inhibition) at 1uM” value turned out to be 9.68%.
To `CCSc1nnc(NC(=O)c2ccccn2)s1` belongs 4.02%; to `COc1ccc(S(=O)(=O)N2CCSC2c2ccc(OC)c(OC)c2)cc1` (centres unmarked), 7%; to `CC(=O)N1CCN(c2ccc(Nc3nc(C)nc4c3oc3ccccc34)cc2)CC1.Cl`, -20.2%.
For `O=c1c(F)cn(C2CCCO2)c(=O)n1Cc1ccccc1Cl` (centres unmarked), the “hERG current change (%, negative = inhibition) at 1uM” value is recorded as 14.9%.
As for `CC1CCc2c(sc3nc(CN4CCOCC4)nc(Sc4ccccc4)c23)C1` (centres unmarked), the “hERG current change (%, negative = inhibition) at 1uM” value is on record as 14.8%.
As to `COc1nccc(C(F)(F)F)c1C(=O)NC(=O)Nc1ccccc1`, the “hERG current change (%, negative = inhibition) at 1uM” value is reported as -1.81%.
To `CCCn1c2ccccc2c2cnn(CC(=O)N3CCOCC3)c(=O)c21` belongs 7.27%.
Regarding `O=C(Nc1ccc2c(c1)S(=O)(=O)N=C1CCCCCN12)c1ccccc1Cl`, the “hERG current change (%, negative = inhibition) at 1uM” value is reported as 0.457%.
To `O=C(CN1C(=O)CSc2ccccc21)NC1CCCC1` belongs 0.689%; to `CC(C)(C)n1cnc(C(N)=O)c1N`, -1.88%.
With `CCOC(=O)Cn1nc(C)n(-c2ccc(C)cc2)c1=O` the figure was 1.14%; with `COc1ccc(CCN2C(=O)C(Oc3ccccc3)C2c2ccc3c(c2)OCO3)cc1` (centres unmarked), 9.31%; with `O=C(CS(=O)(=O)c1c[nH]c2ccccc12)N1CCc2ccccc21`, -1.88%.
To `O=C(Nc1cc(Cl)ccc1Cl)c1noc2c1CCCC2` belongs 14%; to `COc1ccc2[nH]cc(C(O)CN3CCC(C(N)=O)CC3)c2c1` (centres unmarked), 11.1%; to `CC(=O)c1ccc(NC(=O)C2=CC(c3cccs3)=NS(=O)(=O)N2C)cc1`, 14.6%.
Regarding `CC(C)CC(=O)/C=C/n1c(=S)oc2ccccc21`, the “hERG current change (%, negative = inhibition) at 1uM” value is 12.9%.
To `Cc1ccnn1CC(=O)N/N=C/c1ccc2c(c1)OCO2` belongs -9.14%; to `NC(=O)CCCc1nc(-c2ccccc2)no1`, 5.77%; to `COc1ccccc1NC(=O)CN(c1ccccc1C)S(C)(=O)=O`, 11.9%.
To `Cc1ccc(-c2nnc(SCC(=O)N3CCOCC3)nc2-c2ccc(C)cc2)cc1` belongs 11.6%; to `CC1(C)CC(=O)C2=C(C1)OC(N)=C(C#N)C2c1ccsc1` (centres unmarked), 2.57%.
With `COc1ccc(-c2csc(NC(=O)c3c(C)noc3C)n2)cc1` the figure was 5.78%; with `CC1CCc2c(sc(N)c2C(N)=O)C1` (centres unmarked), 1.53%.
With `Cc1cc(C)c2cc(C(=O)N3CCN(c4ncccc4C(F)(F)F)CC3)[nH]c2c1`, the “hERG current change (%, negative = inhibition) at 1uM” value is given as 7.95%.
Regarding `CCOC(=O)CSc1nnnn1-c1cccc2ccccc12`, the “hERG current change (%, negative = inhibition) at 1uM” value stood at 20.3%.
`COC(=O)C(C)(C)ONC(=O)Nc1ccc([N+](=O)[O-])cc1`: the “hERG current change (%, negative = inhibition) at 1uM” value is -0.0253%.
To `Cc1ccc(-c2noc(-c3ccccc3Br)n2)cc1` belongs 8.89%; to `O=C(O)CSc1ccc2ccccc2n1`, 11.9%.
With `COc1ccc(OCC(=O)OC(C)CN2CCCCC2)cc1` (centres unmarked) the figure was 12.1%; with `COc1ccc(S(=O)(=O)N2CCC(C(=O)NC3CC3)CC2)cc1Cl`, 9.14%.
To `COc1ccc(C2Nc3ccccc3C(=O)N2NS(=O)(=O)c2ccc(C)cc2)c(OC)c1` (centres unmarked) belongs 10.8%; to `O=C(c1cccc(S(=O)(=O)N2CCCCC2)c1)N1CCc2ccccc21`, 5.5%; to `O=C(Nc1ccc(N2CCOCC2)cc1)C1CC(=O)N(c2ccc(F)cc2)C1` (centres unmarked), -5.42%.
Regarding `O=C1C(Cl)=C(N2CCOCC2)C(=O)N1c1ccc(Br)cc1`, the “hERG current change (%, negative = inhibition) at 1uM” value stood at 12.5%.
With `Cc1cccc(OCCCn2c(=O)oc3ccccc32)c1` the figure was 16.1%; with `COc1ccc(CN2CCN(Cc3ccccc3F)CC2)cc1.O=C(O)C(=O)O`, 1.94%.
To `CC(C)n1c(=O)c(C=Nc2ccc(Br)cc2)c(O)n(Cc2ccco2)c1=O` belongs 10.9%.
As for `COc1ccc(C(=O)OCC(=O)NCCCc2ccccc2)c(OC)c1`, the “hERG current change (%, negative = inhibition) at 1uM” value came to 2.43%.
To `Cn1nnnc1SCc1nc2ccccc2[nH]1` belongs -1.71%; to `CC(=O)c1cccc(NC(=O)c2nccnc2C(=O)O)c1`, 8.66%; to `O=c1[nH]c(CO)nc2c1oc1ccccc12`, 10.8%.
`O=C(NC1CCCCC1)NC12CC3CC(CC(C3)C1)C2`: the “hERG current change (%, negative = inhibition) at 1uM” value was 7.67%.
Turning to `COc1cc(NC(=S)NC2CC(C)(C)NC(C)(C)C2)cc(OC)c1`, the “hERG current change (%, negative = inhibition) at 1uM” value is 13.2%.
With `CCOC(=O)Cc1c(C)[nH]c(=S)[nH]c1=O`, the “hERG current change (%, negative = inhibition) at 1uM” value is 15.7%.
Take `COc1ccc(Nc2cc(C)c3ccc(O)cc3n2)cc1`: the “hERG current change (%, negative = inhibition) at 1uM” value is 0.561%.
Turning to `CCOC(=O)Cn1nnnc1C(CC)N(Cc1ccccc1)Cc1cc2cc(C)ccc2[nH]c1=O` (centres unmarked), the “hERG current change (%, negative = inhibition) at 1uM” value is reported as -2.05%.
Turning to `O=C1N[C@H](C(=O)O)CS1`, the “hERG current change (%, negative = inhibition) at 1uM” value came out at 1.68%.
With `Cc1ccc(CNC(=O)C2(S(=O)(=O)c3ccccc3)CC=CC2)cc1` the figure was 2.36%; with `O=C1CCCc2c1nc(-c1ccco1)n2O`, 16.6%; with `CCOC(=O)/C(=N\Nc1ccc(Br)cc1)N1CC(C)OC(C)C1` (centres unmarked), -1.02%.
With `CCOC(=O)c1c(NC(=O)C2=COCCO2)sc2c1CCN(C(=O)OC)C2` the figure was 10.5%.
To `CCN1CCc2c(OCC(=O)Nc3cccc(C)c3)cccc2C1=O` belongs 12.4%; to `CCCC1N2CC3([N+](=O)[O-])CN1CC([N+](=O)[O-])(C2)C3(C)C` (centres unmarked), 0.0294%; to `CCN(CC)S(=O)(=O)c1cccc(-c2nnc(SCC(N)=O)n2N)c1`, 0.795%.
Regarding `COc1cc(OC)cc(-c2nnc(SCc3ccc(C(=O)O)cc3)o2)c1`, the “hERG current change (%, negative = inhibition) at 1uM” value is given as -3.3%.
On to `CCC1CCCCN1S(=O)(=O)c1ccc(S(=O)(=O)N(Cc2ccccn2)CC2CCCO2)cc1` (centres unmarked), for which the “hERG current change (%, negative = inhibition) at 1uM” value stood at 11.8%.
With `Cc1cc(CN2CCCCC2)oc1C(=O)O.Cl` the figure was 4.85%.
In the case of `CCOC(=O)C1=C(NC(=S)NC(=O)c2ccccc2)c2ccccc2CC1(C)CC` (centres unmarked), the “hERG current change (%, negative = inhibition) at 1uM” value came out at 15.2%.
For the compound `COC(=O)c1ccccc1Sc1ncnc2onc(C)c12`, the “hERG current change (%, negative = inhibition) at 1uM” value was determined as 2.19%.
Take `Cc1ccc(C)c(-n2nnnc2Sc2nc([N+](=O)[O-])nn2C)c1`: the “hERG current change (%, negative = inhibition) at 1uM” value worked out at 2.1%.
As to `CCc1cccc(C)c1NC(=S)NCc1ccccc1`, the “hERG current change (%, negative = inhibition) at 1uM” value amounted to 11%.
To `CCC(NC(=O)c1ccccc1NC(=O)c1ccccc1)C(=O)NNC(=O)CSc1nc2ccccc2o1` (centres unmarked) belongs 1.8%.
To `O=C(O)/C(=C1/OC(=O)c2ccccc21)c1ccccc1` belongs 6.12%; to `O=C(Nc1ccc(Cc2ccc(NC(=O)C3CC3)cc2)cc1)C1CC1`, 15.9%.
With `CN(C)c1ccc(CC(=O)c2nc3ccccc3s2)cc1` the figure was 12.8%; with `CC1(C(=O)OCc2cc(=O)n3cc(Br)ccc3n2)CC1(Cl)Cl` (centres unmarked), -11.1%.
For `CN(C)NC(=O)c1cccc(Cl)c1`, the “hERG current change (%, negative = inhibition) at 1uM” value is listed as 15.4%.
On to `Nc1cccc(S(=O)(=O)Nc2ccc(SC(F)F)cc2)c1`, for which the “hERG current change (%, negative = inhibition) at 1uM” value was 11%.
With `COc1ccc(NC(=O)c2ccc(Cn3cc(Cl)cn3)cc2)cc1` the figure was 6.4%; with `Cc1c(C(=O)N2CCC(C)CC2)oc2ccc(S(=O)(=O)N3CCC4(CC3)OCCO4)cc12`, 2.19%; with `Cc1ccccc1CN1[C@@H](Cc2ccccc2)COCCS1(=O)=O`, 11.1%.
To `O=C(NCC1CCCO1)c1ccc2c(=O)n(Cc3ccc(Cl)cc3)c(=S)[nH]c2c1` (centres unmarked) belongs 7.38%.
To `CCn1cc(S(=O)(=O)NCc2ccccc2Br)cn1` belongs 10.2%; to `CCCCCNC(=O)c1ccc2c(=O)[nH]c3c(C(=O)NCC4CCCO4)sc(=S)n3c2c1` (centres unmarked), 4.82%.
In the case of `CC(C)c1ccc(C(=O)Nc2ccc(CN3CCOCC3)cc2)cc1`, the “hERG current change (%, negative = inhibition) at 1uM” value is on record as -7.48%.
To `CCC(C)NC(=O)Cn1cc(S(=O)(=O)N2CCCC2)c(S(=O)(=O)N2CCCC2)c1` (centres unmarked) belongs 13.6%; to `O=C(O)c1cccnc1SCc1ccccc1Cl`, -0.261%; to `CC(=O)Nc1ccccc1C(=O)C(=O)Nc1cccc(C(=O)NCc2ccccc2)c1`, 3.7%.
On to `CCN(CC)CCCNC(=S)N(Cc1cccnc1)Cc1cc2cc(C)ccc2[nH]c1=O`, for which the “hERG current change (%, negative = inhibition) at 1uM” value is on record as 8.85%.
As for `O=C(CCN1C(=O)/C(=C/c2ccccc2Cl)SC1=S)NNC(=O)c1ccccc1O`, the “hERG current change (%, negative = inhibition) at 1uM” value was determined as 10.2%.
Turning to `CCOC(=O)c1c(C)[nH]c(C(=O)OCC(=O)N(CC(C)C)c2c(N)n(Cc3ccccc3)c(=O)[nH]c2=O)c1C`, the “hERG current change (%, negative = inhibition) at 1uM” value is -6.78%.
In the case of `COc1ccc(C2C(C#N)=C(SC)NC3=C2C(=O)CC(C)(C)C3)cc1` (centres unmarked), the “hERG current change (%, negative = inhibition) at 1uM” value stood at 2.77%.

Values taken from publication PMC4336329 (PLoS ONE, 2015).
